In all, about 310,000 compounds went through this assay and about 2,200 (0.71%) showed an effect of 50% or more. Effects have a minus sign here. This is one part of the list.
target: human ether-à-go-go-related gene (hERG) potassium channel (human, UniProt Q12809); experiment: primary screen, population patch clamp on CHO cells stably expressing hERG
Sequence (Q12809 whole entry, looked up): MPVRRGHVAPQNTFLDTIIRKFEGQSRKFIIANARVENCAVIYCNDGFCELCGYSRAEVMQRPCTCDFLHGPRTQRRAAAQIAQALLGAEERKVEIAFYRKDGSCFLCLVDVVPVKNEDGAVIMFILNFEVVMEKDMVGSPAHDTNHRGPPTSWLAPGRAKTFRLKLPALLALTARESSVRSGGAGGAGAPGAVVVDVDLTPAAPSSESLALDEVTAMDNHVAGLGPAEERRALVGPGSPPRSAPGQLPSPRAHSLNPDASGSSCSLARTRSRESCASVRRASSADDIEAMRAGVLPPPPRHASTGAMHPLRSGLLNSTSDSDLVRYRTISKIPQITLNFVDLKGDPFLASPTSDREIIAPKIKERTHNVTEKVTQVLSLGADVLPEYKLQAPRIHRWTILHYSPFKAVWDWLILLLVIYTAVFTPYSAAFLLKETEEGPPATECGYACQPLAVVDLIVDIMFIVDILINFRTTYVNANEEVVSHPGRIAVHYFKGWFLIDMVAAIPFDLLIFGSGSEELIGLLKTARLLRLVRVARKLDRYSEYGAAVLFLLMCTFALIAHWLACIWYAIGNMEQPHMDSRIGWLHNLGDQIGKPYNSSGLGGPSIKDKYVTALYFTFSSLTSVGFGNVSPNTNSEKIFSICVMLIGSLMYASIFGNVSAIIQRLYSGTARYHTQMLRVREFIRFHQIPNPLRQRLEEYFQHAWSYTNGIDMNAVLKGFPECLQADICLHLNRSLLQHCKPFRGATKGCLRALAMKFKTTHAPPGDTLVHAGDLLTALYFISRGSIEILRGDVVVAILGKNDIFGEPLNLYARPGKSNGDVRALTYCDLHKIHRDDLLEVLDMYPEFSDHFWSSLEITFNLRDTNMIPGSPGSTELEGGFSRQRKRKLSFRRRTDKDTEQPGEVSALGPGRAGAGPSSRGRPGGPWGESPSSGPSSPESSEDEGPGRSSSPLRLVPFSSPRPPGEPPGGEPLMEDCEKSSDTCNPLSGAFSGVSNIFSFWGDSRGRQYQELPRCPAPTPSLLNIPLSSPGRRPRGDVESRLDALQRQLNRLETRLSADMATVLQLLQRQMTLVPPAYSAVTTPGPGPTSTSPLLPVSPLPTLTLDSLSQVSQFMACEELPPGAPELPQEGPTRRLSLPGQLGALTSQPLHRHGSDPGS

Structure (SMILES) | hERG current change (%, negative = inhibition) at 1uM [%]
Cc1cnc(NC(=O)Cc2ccccc2F)s1 | 12.6
CC1CCCCC12NC(=O)N(CC(=O)OCC(=O)NC(=O)c1ccccc1)C2=O (stereo not drawn) | 9.8
CN(CCNC(=O)C1CCN(c2ncnc3c2nc2n3CCCCC2)CC1)Cc1ccccc1 | 10.7
O=C(C1CCCCC1)N1CCCC(c2nc3c(nnn3Cc3ccccc3)c(=O)[nH]2)C1 (stereo not drawn) | -4.29
O=C(NNC1=NCCC1)c1cccc(S(=O)(=O)N2CCOCC2)c1 | 10.2
CCCCNC(=O)c1ccc2nc(-c3ccco3)c(-c3ccco3)nc2c1 | 3.57
CC1CCN(C(=S)c2cn(Cc3ccc(F)cc3)c3ccccc23)CC1 | 4.36
CCOc1c2ccc(C(=O)NCc3ccco3)cc2nn1CCOC | 7.12
CCS(=O)(=O)N1CCN(C2CCC(C)CC2)CC1.O=C(O)C(=O)O (stereo not drawn) | 11.7
Cc1n(Cc2ccccc2)c2cc([N+](=O)[O-])ccc2[n+]1Cc1ccccc1.[Cl-] | 19.1
CCN1CCN(Cc2c(C(=O)N/N=C(\C)c3ccc(Cl)cc3)nnn2-c2nonc2N)CC1.Cl | 10.1
COc1c(C)cc(C(=O)C2CCCN(Cc3ccc(Oc4ncccn4)cc3)C2)cc1C (stereo not drawn) | -18.1
COc1ccc(C(=O)Nc2cc(C(C)=O)c(/C=C/N(C)C)oc2=O)cc1 | 10.7
CCn1c(SCC(=O)NCc2ccc3c(c2)OCO3)nnc1-c1ccncc1 | 14.1
COc1ccc(C(=O)N/N=C/c2ccccc2OC(=O)c2ccccc2)cc1 | 10.5
O=C1c2ccccc2CC1(Cc1ccccc1)Cc1ccccc1 | -11.4
O=C(CSCc1cccc(Cl)c1)N1CCN(Cc2ccc3c(c2)OCO3)CC1 | -6.36
CC(C)CSc1n[nH]c(N)n1 | 11
CCOc1ccc2nc(NC(=O)C3=NN(c4ccccc4)C(=O)CC3)sc2c1 | 11.2
CCN(CC)S(=O)(=O)c1cccc(NC(=O)COC(=O)C2CC3C=CC2C3)c1 (stereo not drawn) | 11.8
CC(=O)NC(Cc1ccccc1C)C(=O)NC1CCN(c2nnnn2-c2ccccc2)CC1 (stereo not drawn) | 12.7
CCOc1ncccc1-c1nc(-c2cccs2)no1 | 12.5
Cc1nc(SCC(=O)Nc2ccc(Cl)cc2[N+](=O)[O-])nc(C)c1C | 8.86

Structure (SMILES) | hERG current change (%, negative = inhibition) at 1uM [%]
CCOC(=O)C1CCCN(CCC(=O)Nc2ccc3c(c2)CCC3)C1 (stereo not drawn) | -8.84
CCCCCCC(=O)Nc1ccc(C(=O)N/N=C/c2cccnc2)cc1 | 0.253
O=C1NN=COc2ccccc21 | 4.08
CC(C)CC(=O)Nc1ccc(C(=O)COC(=O)C2=COCCO2)cc1 | -9.02
CC(C)CC(=O)Nc1ccc(S(=O)(=O)N2CC3CC(C2)c2cccc(=O)n2C3)cc1 (stereo not drawn) | 11.8
CN1CCN(C(=O)C2=C[C@H](c3ccc4c(c3)OCO4)C[C@H](OCCCCO)O2)CC1 | 6.53
CCCc1ccc2oc(C(=O)N3CCN(C4CCS(=O)(=O)C4)CC3)c(C)c2c1 (stereo not drawn) | 4.95
CC(C)c1ccc(/C=N/NC(=O)c2nnn(-c3nonc3N)c2CSC2=NCCS2)cc1 | 13.2
O=C(NCc1ccccn1)C1CCC(=O)N(Cc2ccc(Cl)cc2)C1 (stereo not drawn) | 48.8
c1cn2cc(CSC3CCCCC3)nc2s1 | 6.16
CCn1c(CC(=O)Nc2ccc(Cl)c(Cl)c2)nnc1SCc1ccc(C)cc1 | 16.1
CC(C(=O)Nc1cccc([N+](=O)[O-])c1)N1C(=O)NC2(CCCC2)C1=O (stereo not drawn) | 15.2
COc1ccc(S(=O)(=O)N2CCCCC2)cc1NC(=O)c1ccc(=O)[nH]c1 | 6.14
Cn1c(=O)c2c(nc(Oc3ccc4c(c3)OCO4)n2Cc2ccc(Br)cc2)n(C)c1=O | 2.26
Cc1cccc(Nc2c([N+](=O)[O-])c(=O)n(C)c3ccccc23)c1 | 10.4
O=C(Cc1ccc(S(=O)(=O)N2CCOCC2)s1)NCCOc1ccccc1F | 3.06
CCCCOC(=O)C1=C(C)Nc2ncnn2C1c1ccc(OCC)c(OC)c1 (stereo not drawn) | -17
O=C(CN(c1ccccc1)S(=O)(=O)c1ccccc1[N+](=O)[O-])N1CCCC1 | 18
O=C(CSc1nc(C2CCCCC2)n(-c2ccccc2)n1)NCCN1C(=O)CSC1=O | 6.57
Nc1ccc(S(=O)(=O)NC2=NCCCCC2)cc1 | 10.8
COC(=O)C1=C(c2ccccc2)C[C@@H]2CC[C@H]1N2C(=O)NCc1cccc2ccccc12 | 15.4
CNC(=O)C1CCN(S(=O)(=O)c2c(C)noc2/C=C/c2cccc(C)c2)CC1 | 15.7
